The other results are listed elsewhere or left out. At the low end of the ranking, values are background and their order means little.

The subject of the assay is T1, GST-NbGlk1(82-244).
T1 sequence: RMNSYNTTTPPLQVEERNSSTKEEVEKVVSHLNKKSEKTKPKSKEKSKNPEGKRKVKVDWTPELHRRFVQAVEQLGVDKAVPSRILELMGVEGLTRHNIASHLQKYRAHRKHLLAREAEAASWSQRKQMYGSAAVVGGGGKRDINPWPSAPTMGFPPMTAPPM
Nature of the assay: protein-binding microarray.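 Note: rank-based score ranging −0.5 to +0.5 with E above 0.45 taken as significant binding.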 The following applies: NbGlk1 is a Golden2-like transcription factor of Nicotiana benthamiana; high values mean tight binding; most listed sequences are background and not binding sites; double strand, one strand shown.
With AACCAGAA, the binding signal was 0.107 E-score.

Take AGGAGCTA: the binding signal was -0.169 E-score.

AGACATTA registered a binding signal of 0.0496 E-score.

Take ACTTATTA: the binding signal was 0.125 E-score.

The sequence ATACCCTG showed a binding signal of 0.011 E-score.

Turning to AAAAAGAC, the binding signal was -0.0621 E-score.

With AATGTGAG, the binding signal is -0.00782 E-score.

The sequence AGCCACCT registered a binding signal of -0.22 E-score.

The sequence CAAATGTG had a binding signal of -0.00951 E-score.

For ATCACCAA, the binding signal stood at 0.101 E-score.

In turn, ACGGCCGA registered a binding signal of -0.0553 E-score.

Regarding AGGTAACA, the binding signal is -0.163 E-score.

ATGGACGC showed a binding signal of -0.126 E-score.

AGCACCTG returned a binding signal of -0.228 E-score.

On to CAAAGAGG, for which the binding signal was -0.118 E-score.

In turn, AAAGCAGC had a binding signal of -0.045 E-score.

Regarding ATCGTATC, the binding signal is 0.36 E-score.

The sequence AAATACCA displayed a binding signal of 0.0562 E-score.

For AACACCTT, the binding signal stood at 0.0389 E-score.

Take ATGATAGA: the binding signal amounted to 0.166 E-score.

Consider CACCTGAA, for which the binding signal was -0.148 E-score.

As to ACCTTCTA, the binding signal is -0.062 E-score.

Regarding ACCCTGTG, the binding signal was -0.135 E-score.

For ACCGCTGA, the binding signal was -0.179 E-score.

The sequence ATTTGCTG yielded a binding signal of 0.225 E-score.

Take ATGCCTAA: the binding signal stood at 0.0514 E-score.

For ACACGGTG, the binding signal is -0.206 E-score.

As for ACGAGAAC, the binding signal is -0.0407 E-score.

Sequence AAGTAGAG came in with a binding signal of -0.113 E-score.

For the sequence ATTATACG, the binding signal came to 0.138 E-score.

The sequence AAAACCGG displayed a binding signal of 0.113 E-score.

In turn, AGGCAACC returned a binding signal of -0.215 E-score.

Consider ACCTCCCG, for which the binding signal is -0.176 E-score.

Consider AGATATCC, for which the binding signal was determined as 0.48 E-score.

ATATGGGA returned a binding signal of 0.208 E-score.

Regarding CAGCGAGC, the binding signal is -0.255 E-score.

Regarding AGGCTTGA, the binding signal was -0.164 E-score.

In the case of CAACATCC, the binding signal stood at 0.0464 E-score.

Sequence AAATTTGT displayed a binding signal of 0.157 E-score.

For the sequence ACACCCAA, the binding signal was -0.196 E-score.

On to ACAACGCG, for which the binding signal is -0.0812 E-score.

Turning to AAGGGAAG, the binding signal is -0.253 E-score.

Regarding AAAGCAGA, the binding signal was found to be 0.0773 E-score.

AACCAAAG showed a binding signal of -0.0575 E-score.

As for AAAAAGGG, the binding signal was -0.0601 E-score.

AAGGGTTC displayed a binding signal of -0.194 E-score.

ATCAGAGC showed a binding signal of 0.0491 E-score.

Regarding AACCAAGA, the binding signal worked out at 0.0663 E-score.

On to ATACTGCG, for which the binding signal amounted to 0.0586 E-score.

On to ACACATCA, for which the binding signal was -0.0432 E-score.

AATTCGTC had a binding signal of 0.0604 E-score.

AAAACCGC returned a binding signal of -0.159 E-score.

The sequence AAAGGTGC displayed a binding signal of -0.174 E-score.

For the sequence ATCCTACG, the binding signal is 0.116 E-score.

AGCTGCCG: the binding signal was -0.271 E-score.

AAGGTCAG displayed a binding signal of -0.155 E-score.

Sequence ACCCTCAT came in with a binding signal of -0.114 E-score.

Regarding ACAGCGGT, the binding signal was -0.215 E-score.

For ATTCATGG, the binding signal was 0.0088 E-score.

On to AGTGAGTA, for which the binding signal was -0.03 E-score.

For AACCTGTG, the binding signal was -0.0744 E-score.

Consider ACCGCAAA, for which the binding signal was -0.0137 E-score.

As for ACATCAAG, the binding signal worked out at 0.00309 E-score.

In the case of CAAGATAA, the binding signal amounted to 0.0886 E-score.

Turning to ATTGTTGG, the binding signal came to 0.0975 E-score.

Sequence CAATAAGG registered a binding signal of -0.028 E-score.

Take ACGTAAGT: the binding signal was determined as 0.0284 E-score.

Turning to AGCATACC, the binding signal was -0.088 E-score.

With AATGTATA, the binding signal was found to be 0.109 E-score.

ACGTTCTC registered a binding signal of -0.263 E-score.

Consider AGGGGTCA, for which the binding signal was -0.277 E-score.

Take AAATGACA: the binding signal was -0.0441 E-score.

In the case of AGCCCAAA, the binding signal is -0.053 E-score.

With AGGATTAG, the binding signal was -0.0156 E-score.

Consider ATACGGTG, for which the binding signal was 0.107 E-score.

In the case of CAATAAAG, the binding signal was 0.0383 E-score.

On to CAACGTTG, for which the binding signal came out at 0.102 E-score.

ACAGATTC yielded a binding signal of 0.429 E-score.

Sequence AAGGGCCC displayed a binding signal of -0.301 E-score.

As to CAATCGCG, the binding signal turned out to be 0.257 E-score.

For the sequence CAGCAATC, the binding signal was 0.339 E-score.

ACACCCGC yielded a binding signal of -0.109 E-score.

Sequence ACCTTTGG came in with a binding signal of -0.19 E-score.

AATGCGCG had a binding signal of -0.0078 E-score.

With ACAGAGAG, the binding signal was -0.159 E-score.

As to AAGGTCTG, the binding signal was -0.107 E-score.

ACTGGAGA: the binding signal was determined as 0.0064 E-score.

ATACAAGC displayed a binding signal of -0.0415 E-score.

The sequence ATATAAAA returned a binding signal of 0.212 E-score.

Sequence AGTAAGGG showed a binding signal of -0.206 E-score.

As to AACGAATG, the binding signal was -0.115 E-score.

CAACTGGG: the binding signal is -0.185 E-score.

Regarding CAATGCCA, the binding signal is -0.133 E-score.

As for ACTCTCCG, the binding signal is -0.118 E-score.

In turn, AGTTGCGC displayed a binding signal of -0.119 E-score.

For ACGTCTCA, the binding signal is -0.134 E-score.

ATACGCCG displayed a binding signal of 0.128 E-score.

In turn, ACATTATA came in with a binding signal of 0.112 E-score.

ATTCTGTG came in with a binding signal of 0.25 E-score.

In the case of ACCACCGG, the binding signal was -0.131 E-score.

On to AGAATTTA, for which the binding signal was found to be 0.222 E-score.

As for ACAGTTCC, the binding signal was -0.0264 E-score.

ATATTGCC returned a binding signal of 0.249 E-score.

In turn, AAAGTTAA gave a binding signal of -0.0775 E-score.

Sequence ACACTCCA showed a binding signal of -0.211 E-score.

Regarding AGTCTTAC, the binding signal stood at 0.0345 E-score.

ACATTTTC showed a binding signal of 0.0919 E-score.

As for CACTTCCC, the binding signal was -0.21 E-score.

Sequence CAACGGAC yielded a binding signal of -0.0318 E-score.

The values are drawn from publication PMC5836133.
